Experimental data as given in ChEMBL document CHEMBL1157539, “Thousands of chemical starting points for antimalarial lead identification” (Nature, 2010).
The full ranking holds about 13,000 compounds; the median of “IFI” is about 4, and the highest 2% start at about 17. The list shows a part of the results.

Test: GSK_TCMDC: Inhibition Frequency Index (IFI). The number of non-kinase HTS assays where a compound showed > 50 % inhibition, expressed as a percentage of the number of such assays in which the compound was tested (-0 is zero)
Type: functional
In the case of Cc1cc(-c2nc3cncc(-c4cccc(CN5CCCC5Cc5cccnc5)c4)c3n2C)nn1C (stereo not given), the IFI is reported as -0%. With O=C(N/C=N/c1cc([N+](=O)[O-])c(-c2cccnc2)n1-c1ccc(O)cc1)c1ccccc1 the IFI was 1.47%. For CCC[C@@H]([C@@H](CC(C)C)C(=O)N[C@@H](CCCCNC(=O)c1ccccn1)C(=O)Nc1nccs1)N(O)C=O, the IFI was 2.99%. CNC(=O)c1cnc(Nc2ccc(N3CCN(C)CC3)cc2)nc1Nc1cccc([N+](=O)[O-])c1 gave an IFI of 3.73%. C[C@@H](CNc1ccnc(Nc2ccc3[nH]c(=O)[nH]c3c2)n1)c1ccccc1 gave an IFI of 3.23%. CCCOc1ccc(C=C(CC(=O)O)c2nc3ccccc3s2)cc1OCC gave an IFI of 6%. CN1CCC(c2c[nH]c3ccc(NC(=O)Nc4ccc(-c5ccncc5)c(Cl)c4Cl)cc23)CC1 gave an IFI of 3.68%. In the case of O=c1ccc2ncc(Cl)c3c2n1CC3CN1CCC(NCc2cc3c(cn2)OCCO3)CC1 (stereo not given), the IFI is reported as 1.4%. For O=C1CSc2ccc(CNC3CCN(CCc4c(Cl)cnc5ccc(F)cc45)CC3)nc2N1, the IFI was 2.34%. In the case of Cc1cc(N[C@@H](CC(C)C)C(=O)NCc2cccs2)nc(Nc2ccccc2)n1, the IFI is reported as 7.32%. CCCc1cc(OC)c(C[C@@H]2c3cc(O)c(Cl)cc3CCN2C)cc1OC showed an IFI of 0.74%. In the case of N#Cc1ccc(N2CCN(Cc3ccc(-c4ccc(-c5nc6cc(C(F)(F)F)ccc6[nH]5)s4)cc3)CC2)nc1, the IFI is reported as 4.85%. CCN(CC)CC#Cc1ccc2[nH]c(C)c(Cl)c(=O)c2c1 showed an IFI of 3.67%. Cc1cc(CN2CCCC(OC(c3ccc(F)cc3)c3ccc(F)cc3)C2)ccc1O (stereo not given) showed an IFI of 5.19%. In the case of O=C(Nc1ccc(I)cc1)N1CCc2sccc2C1CN1CCCCC1 (stereo not given), the IFI is reported as 2.47%. For NC1CCCN(Cc2ccc(-c3ccc(-c4nc5cc(F)ccc5[nH]4)s3)cc2)C1 (stereo not given), the IFI was 8.45%. For NC1=NC(c2ccccc2)N(OCc2ccccc2)C(N)=N1 (stereo not given), the IFI was -0%. Compound Cn1c(NC2CCN(CC3CCN(C(=O)/C=C/c4ccc(Cl)c(Cl)c4)CC3)CC2)nc2ccccc21 has an IFI of 10.4%. Compound O=C(Nc1ccc(-c2nc3ccccc3[nH]2)cc1)c1cnc(Cl)c(Cl)c1 has an IFI of 1.47%. With CC(C)Nc1cc(C(=O)N[C@@H](Cc2ccccc2)[C@H](O)CNC2CCCCC2)cc(N2CCCCS2(=O)=O)c1 the IFI was 2.14%. Compound Cc1cccc2nc(-c3ccc(-c4cccc(NC(=O)Nc5cccc(C#N)c5)c4)cc3)[nH]c12 has an IFI of 4.04%. Compound COc1ccc(NC(=O)N2CCCN(CCCCCNC(=O)/C=C/c3ccc(Cl)cc3)CC2)cc1Cl has an IFI of 6%. With Nc1cccc(-c2ccc3ccnc(N)c3c2)c1 the IFI was 5.56%. Cc1ccc(NS(=O)(=O)c2ccc(C(C)N3CCC(N4CCCCC4)CC3)cc2)cc1C (stereo not given) showed an IFI of 10.1%. In the case of Nc1cccc(CNCc2ccc(-c3ccc(-c4nc5ccccc5[nH]4)s3)cc2)c1, the IFI is reported as 8.57%. Compound CC[C@H](C)CNC(=O)c1ccnc(-c2cccc(CN3CCC(N4CCCC4)CC3)c2)c1 has an IFI of 1.61%. For CS(=O)(=O)c1ccc(-c2cc(C(F)(F)F)nc(N[C@@H]3CCCC[C@H]3OCc3ccccc3)n2)cc1, the IFI was 1.5%. Compound CC(=O)Nc1ncc(C(=O)Nc2cccc(-c3ccc(-c4nc5cccc(C)c5[nH]4)cc3)c2)s1 has an IFI of 6.48%. Work on Cc1cccc2nc(-c3ccc(-c4ccc(CN5CCCCC5CO)cc4)cc3)[nH]c12 (stereo not given) yielded an IFI of 5.56%. Compound COc1c(C2CCN(CCCCNC(=O)c3ccc(-c4ccc(C#N)cc4)nc3)CC2)ccc2c1CCCC2 has an IFI of 12.2%. In the case of CCOc1ccc2c(=NN=Cc3ccccc3F)cc(C)[nH]c2c1, the IFI is reported as 1.43%. Work on N=C(N)NCCCN(Cc1ccccc1)c1ccccc1 yielded an IFI of 5.97%. With CC(C)NCc1cccc(-c2cccc(NC(=O)c3ccc(C#N)cc3)c2)c1 the IFI was 3.88%. For COc1ccc(CNC(=O)c2cnc3c(O)cccc3c2Nc2cccc(NC(=O)c3ccc(-c4ccccc4)cc3)c2)cc1, the IFI was 5.93%. In the case of Cc1ccc(-n2cc(CNCC3CCN(CCO)CC3)c(-c3ccc(F)cc3)n2)cc1, the IFI is reported as 11.4%. Work on Cc1cnc2ccc(NS(=O)(=O)c3ccc4c(Cl)cccc4c3)cc2c1N1CCNCC1 yielded an IFI of 1.42%. In the case of O=C(CSc1cccc[n+]1[O-])c1ccc(Cc2ncc(C(F)(F)F)cc2Cl)s1, the IFI is reported as 0.74%. In the case of O=C(NC1CCN(Cc2ccccc2)CC1)c1cccc(-c2nc3ccc(Cl)cc3[nH]2)c1, the IFI is reported as 0.75%. Work on O=C(Nc1ccc(C(=O)N2CCN(CCN3CCN(c4cccc(C(F)(F)F)c4)CC3)CC2)cc1)c1cc(Cl)cc(Cl)c1 yielded an IFI of 1.74%. COc1cc2nc(Nc3ccc(Oc4ccccc4)cc3)nc(Nc3ccc(Oc4ccccc4)cc3)c2cc1OC gave an IFI of 3.65%. Compound CC(C)(C)OC(=O)Nc1cccc(-c2csc(NC(=N)N)n2)c1 has an IFI of 4.08%. Work on CCOc1ccc2nc3cc(NC(=O)c4ccco4)ccc3c(N)c2c1 yielded an IFI of 20.5%. In the case of CC(=O)Nc1nc(C)c(-c2csc(Nc3ccc(Cl)cc3)n2)s1, the IFI is reported as 4.41%. Compound NC1=NC(CCc2ccccc2)N(c2ccccc2)C(N)=N1 (stereo not given) has an IFI of 2.22%. With Cc1cccc2nc(-c3ccc(-c4cccc(CNCc5ccccc5)c4)s3)[nH]c12 the IFI was 4.81%. For CNCCNCc1ccc(-c2cccc(-c3nc4cc(C(F)(F)F)ccc4[nH]3)c2)cc1, the IFI was 4.95%. For COc1ccc2nccc([C@@H](O)CN3CCC(NCc4cc5cccc(OCc6ccccc6)c5[nH]4)CC3)c2c1, the IFI was 13%. With NS(=O)(=O)c1ccc(CNc2ccc3ncc(-c4ccc(Cl)cc4)n3n2)cc1 the IFI was 3.82%. With Fc1ccc2c(NN=CC=Cc3ccccc3)ccnc2c1 the IFI was 0.77%. Compound O=C(NC1CCCC1)c1ccc(N2CCC(NCc3cc4cc(Cl)ccc4[nH]3)CC2)cc1 has an IFI of 9.76%. In the case of CN1CCC(Oc2ccc(CN3CC[C@H](NC(=O)c4ccc(Cl)c(Cl)c4)C3)c3ccccc23)C1 (stereo not given in full), the IFI is reported as 11.9%. Work on CC(C)(C)c1ccc(Cc2cccc3nc(N)nc(N)c23)cc1 yielded an IFI of 7.5%. Cn1ccnc1CCC(=O)Nc1ccc(Cl)cc1C(=O)Nc1ccc(Cl)cc1 showed an IFI of 0%. With NC(=O)c1cc(-c2ccccc2)cc2c(C3CCC(NCc4ccccc4)C3)c[nH]c12 (stereo not given) the IFI was 10.6%. Compound Cc1ccc(C2CC(c3cccs3)=NN2C(=O)c2ccc(Br)o2)cc1 (stereo not given) has an IFI of 4.17%. With COc1ccc(-c2ccc(NC(=O)c3ccc(Cl)cc3)cc2)cc1CN1CCN(C)CC1 the IFI was 4.95%. Work on COc1ccc(C(=O)COc2cccc(/C=C/C(=O)O)c2)cc1OC yielded an IFI of 0.7%. CCNC(C)(C)CN(Cc1ccc(-c2ccc(C(F)(F)F)cc2)cc1)C(=O)Cn1c(SCc2ccc(F)cc2)nc(=O)c2c1CCC2 showed an IFI of 14.8%. COc1ccc([N+](=O)[O-])cc1N(Cc1ccccc1-c1ccccc1)S(=O)(=O)c1ccc(C(F)(F)F)cc1[N+](=O)[O-] gave an IFI of 2.16%. c1ccc(CNCc2cccc(-c3cccc(-c4nc5ccccc5[nH]4)c3)c2)cc1 showed an IFI of 5.83%. Work on COc1ccc(-c2cccc(NC(=O)c3ccc(C#N)cc3)c2)cc1CNC(C)C yielded an IFI of 3.96%. Work on O=C(Nc1ccc(OC2CCN(Cc3ccc(F)cc3)CC2)c(Cl)c1)c1ccc(F)cc1 yielded an IFI of 11.3%. With N=c1n(CCN2CCCC2)c2ccccc2n1CC(O)c1ccc(Cl)c(Cl)c1 (stereo not given) the IFI was 5.8%. Cc1cccc(C(=O)Nc2ccnc(N3CCC(N(C)Cc4ccccc4)CC3)c2)c1 gave an IFI of 0%. Work on CC(Cc1ccc(C(=O)OC(c2ccccc2)c2ccccc2)cc1)NCC(O)c1ccccc1 (stereo not given) yielded an IFI of 15.5%. Work on COc1ccccc1C(=O)C1CCCN(C(=O)c2ccccc2C(F)(F)F)C1 (stereo not given) yielded an IFI of 0%. COc1cc2nc(C)nc(Nc3ccc4c(ccn4Cc4ccccc4)c3)c2cc1OC gave an IFI of 2.9%. Compound CCC(C)CN1CCN(c2ccc(NC(=O)c3cccs3)cc2)C(C)C1 (stereo not given) has an IFI of 2.78%. Work on CC(=O)c1cc(N2CCOCC2)ccc1N yielded an IFI of 4.05%. With CCOC(=O)Cn1ccc2c(NCc3ccccc3)nc(C)nc21 the IFI was 2.92%. Compound COc1cc(NC(=O)Nc2ccc(Br)cc2C(=O)Nc2ccc(Br)cc2)cc(OC)c1OC has an IFI of 1.55%. Compound CCOc1ccc2c(=NN=Cc3cccc(OC)c3)cc(C)[nH]c2c1 has an IFI of 9.56%. For COc1ccc2nc(C)cc(Nc3ccc(N4CCN(C)CC4)cc3)c2c1, the IFI was 0.75%. OC[C@H](Nc1nc(C(Oc2ccccc2)c2ccccc2)nc2[nH]ncc12)c1ccccc1 (stereo not given in full) showed an IFI of 5.41%. Work on Fc1ccc2[nH]c(-c3cccc(-c4ccc(CN5CCN(c6cnccn6)CC5)cc4)c3)nc2c1 yielded an IFI of 7.77%. For CCOc1ccc(C(=O)Nc2cc(Br)c3c(c2)CNCC3)cc1Cl, the IFI was 6.38%. CN1CCC(NCc2ccc(-c3cccc(-c4nc5ccccc5[nH]4)c3)cc2)CC1 gave an IFI of 4.76%. Work on C/C=C/COc1ccc(-c2c(C)[nH]c(C)c(Cl)c2=O)cc1 yielded an IFI of 0.91%. Work on O=C(N[C@@H](Cc1ccccc1)C(=O)O)c1cc(-c2ccc(F)cc2)no1.O=C(N[C@@H](Cc1ccccc1)C(=O)O)c1conc1-c1ccc(F)cc1 yielded an IFI of -0%. In the case of COc1cc(C(=O)NCCCN2CCN(c3cccc(Cl)c3)CC2)ccc1-c1nc2cc(Cl)c(F)cc2[nH]1, the IFI is reported as 1.46%. Compound COc1ccc(OCCCCON2C(=N)N=C(N)NC2(C)C)cc1 has an IFI of 4.76%. Compound O=C(/C=C/c1ccc(Cl)cc1)NCCCCCN1CCN(C(=O)Nc2ccc(Cl)c(C(F)(F)F)c2)CC1 has an IFI of 9.8%. Work on CCCCCCC(C)c1cc(OCCN(CC)CC)c2c(c1)OC(C)(C)C=C2c1ccncc1 (stereo not given) yielded an IFI of 4.96%. COc1ccc(Nc2nccc(NCC(O)c3cccc(C(F)(F)F)c3)n2)cc1 (stereo not given) showed an IFI of 15.3%. Work on COc1ccc2nccc([C@@H](O)CN3CCC(NCc4nc5c([N+](=O)[O-])cccc5[nH]4)CC3)c2c1 yielded an IFI of 4.51%. CC(CN1CCN(C)CC1)C(=O)Nc1cccc(-c2cccc(-c3nc4cc(F)ccc4[nH]3)c2)c1 (stereo not given) showed an IFI of 1.85%. O=C1CC(C(=O)Nc2cccc(-c3cccc(-c4nc5ccccc5[nH]4)c3)c2)c2ccccc2N1 (stereo not given) showed an IFI of 4.55%. Compound O=C(/C=C/c1ccc(Cl)c(Cl)c1)NCCCCCN1CCC(NC(=O)c2ccc([N+](=O)[O-])cc2)CC1 has an IFI of 7.81%. O=C(NCC1CCC(CNCCCc2ccccc2)CC1)Nc1ccc(Cl)c(Cl)c1 (stereo not given) showed an IFI of 5%. Work on CNc1ccc(CNCc2cccc(-c3ccc(-c4nc5cc(C(F)(F)F)ccc5[nH]4)cc3)c2)cc1 yielded an IFI of 18.8%.
